The target of the assay is T1, cynomolgus monkey DR5 protein with deletion of amino acids 185-213 and death domain loss-of-function mutation … (cynomolgus monkey (Macaca fascicularis)).
T1 construct: also called Cyno DR5Mfdel-K420N
T1 chain: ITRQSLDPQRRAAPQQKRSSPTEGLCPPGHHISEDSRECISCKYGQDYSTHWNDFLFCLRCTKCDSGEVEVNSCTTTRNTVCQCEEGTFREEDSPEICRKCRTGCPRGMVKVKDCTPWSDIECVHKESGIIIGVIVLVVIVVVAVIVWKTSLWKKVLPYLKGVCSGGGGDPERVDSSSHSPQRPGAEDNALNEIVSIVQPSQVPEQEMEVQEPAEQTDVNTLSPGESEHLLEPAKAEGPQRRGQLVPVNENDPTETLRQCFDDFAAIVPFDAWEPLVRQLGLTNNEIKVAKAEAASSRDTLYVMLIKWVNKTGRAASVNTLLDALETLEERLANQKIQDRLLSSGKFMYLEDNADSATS
Put plainly: flow cytometry on cynomolgus DR5-transfected CHO cells; four experiments. (In general: In flow cytometry, cells or beads pass a laser one at a time.)

B1: IgG1-hDR5-01-G56T-E430G (antibody)
heavy: EVQLQQSGAEVVKPGASVKLSCKASGFNIKDTFIHWVKQAPGQGLEWIGRIDPANTNTKYDPKFQGKATITTDTSSNTAYMELSSLRSEDTAVYYCVRGLYTYYFDYWGQGTLVTVSSASTKGPSVFPLAPSSKSTSGGTAALGCLVKDYFPEPVTVSWNSGALTSGVHTFPAVLQSSGLYSLSSVVTVPSSSLGTQTYICNVNHKPSNTKVDKRV[human IgG1 Fc with E430G (EU numbers) omitted]
light: EIVMTQSPATLSVSPGERATLSCRASQSISNNLHWYQQKPGQAPRLLIKFASQSITGIPARFSGSGSGTEFTLTISSLQSEDFAVYYCQQGNSWPYTFGQGTKLEIKRTVAAPSVFIFPPSDEQLKSGTASVVCLLNNFYPREAKVQWKVDNALQSGNSQESVTEQDSKDSTYSLSSTLTLSKADYEKHKVYACEVTHQGLSSPVTKSFNRGEC
The EC50 is the concentration giving half of the maximal effect. B1: the EC50 stood at 0.27 µg/mL.

Values taken from patent US20200247897A1 (Genmab, published 2020).
